Measured values from PubChem BioAssay AID1030 (National Center for Advancing Translational Sciences (NCATS), 2008).
Out of some 220,000 compounds screened, about 16,000 (7.3%) were called active. The shares of active, inactive and inconclusive entries below differ from those in the screen. Calls follow the shape of the dose curve; as a rule, active = well fitted inhibition curve with a large enough effect (not every such curve was filed as active); inconclusive = small, poorly fitted or top-dose-only effect, or another doubt; inactive = no such curve, though single readings can be large or run the other way. No potency is given beside an inconclusive call; the fits are too rough.

target: Aldehyde dehydrogenase 1A1 (Homo sapiens) (UniProt P00352); test: qHTS Assay for Inhibitors of Aldehyde Dehydrogenase 1 (ALDH1A1); settings: Purified ALDH1A1, NADH fluorescence, propionaldehyde substrate; series mostly up to 75.3 µM; activity, negative = inhibition: at the top concentration;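 as to activity, negative = inhibition: plate controls were no enzyme wells and a reference inhibitor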
Potency is read from the fitted curve at half-maximal effect; tags tell the direction and shape of the fitted curve.

Chain of UniProt P00352 (P00352 whole entry, looked up): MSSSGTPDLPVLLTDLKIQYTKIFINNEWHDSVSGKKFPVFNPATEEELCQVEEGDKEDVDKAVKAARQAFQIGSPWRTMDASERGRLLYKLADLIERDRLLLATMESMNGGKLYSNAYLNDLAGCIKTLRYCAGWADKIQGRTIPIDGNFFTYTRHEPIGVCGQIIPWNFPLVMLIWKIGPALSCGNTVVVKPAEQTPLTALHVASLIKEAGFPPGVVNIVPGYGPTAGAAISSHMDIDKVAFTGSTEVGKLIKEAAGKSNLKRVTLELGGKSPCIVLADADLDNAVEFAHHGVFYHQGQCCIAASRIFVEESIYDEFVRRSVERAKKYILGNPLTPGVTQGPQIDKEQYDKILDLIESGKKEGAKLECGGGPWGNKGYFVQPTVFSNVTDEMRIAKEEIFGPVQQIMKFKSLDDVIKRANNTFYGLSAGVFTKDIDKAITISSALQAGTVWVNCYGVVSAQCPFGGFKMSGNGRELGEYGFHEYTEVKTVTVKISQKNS

| Compound | Potency | activity, negative = inhibition |
| --- | --- | --- |
| COc1cccc(-c2nn(-c3ccccc3)cc2/C=C\C(=O)c2cccs2)c1 | inconclusive [inhibitor, single point] | – |
| COc1ccccc1CNc1cc(-c2cccc(C#N)c2)ncn1 | inconclusive [inhibitor, single point] | – |
| CCC(C)(C)n1c(=O)[nH]c2c(c1=O)CCC2 | – | inactive: 3.22% |
| Cc1ccc(-c2cc(C(F)F)n3ncc(C(=O)N4CCN5CCCC5C4)c3n2)cc1 (configuration not stated) | inconclusive [inhibitor, partial curve] | – |
| CC(C)(C)c1cc(NCCCn2ccnc2)n2ncc(-c3ccccc3)c2n1 | inconclusive [inhibitor, single point] | – |
| CCOC(=O)c1cc(-c2ccc3c(c2)OCCO3)nc2c1c(C)nn2CCC#N | inconclusive [inhibitor, partial curve] | – |
| NC(=O)Cc1nc(-c2ccc([N+](=O)[O-])cc2)cs1 | inconclusive [inhibitor, single point] | – |
| c1csc(CNc2nc(-c3cccs3)nc3ccccc23)c1 | inconclusive [inhibitor, single point] | – |
| CN1[C@@H]2CC[C@H]1CC(OC(=O)c1c[nH]c3ccccc13)C2 (some centres not stated) | – | inactive: 0.546% |
| O=C1CCCc2c1cc(C(=O)NCc1ccco1)c(=O)n2-c1ccc(Cl)cc1 | inconclusive [inhibitor, single point] | – |
| Cc1ccc(CNC(=O)N2CCN(C)CC2)cc1 | – | inactive: 3.89% |
| CCC(C)c1ccc(O)c(NC(=O)c2cncc(Br)c2)c1 (configuration not stated) | inconclusive [inhibitor, partial curve] | – |
| Cc1ccc(CNC(=O)COC(=O)c2ccc(S(=O)(=O)N3CCCC3)cc2)cc1 | inconclusive [inhibitor, single point] | – |
| CC(C)C(Nc1ccc(S(=O)(=O)N2CCOCC2)cc1[N+](=O)[O-])C(=O)O (configuration not stated) | active: 1.26 µM | – |
| O=[N+]([O-])c1ccc(-c2cc(-c3ccncc3)nc3ccc4ccccc4c23)cc1 | – | inactive: -6.12% |
| O=C(NCc1ccccn1)c1ccc(=O)oc1 | inconclusive [inhibitor, single point] | – |
| COc1cccc(/C=C/C(=O)Nc2ccc(OC)nc2)c1 | inconclusive [inhibitor, single point] | – |
| CC1CN(c2nc3ccccn3c(=O)c2/C=C(\C#N)S(=O)(=O)c2ccccc2)CC(C)O1 (configuration not stated) | active: 12.6 µM | – |
| O=C(NCc1ccco1)C(=O)NCC(c1ccco1)N1CCOCC1 (configuration not stated) | – | inactive: -0.843% |
| COCCNc1nc2sc3c(c2c(=O)n1Cc1ccco1)CCCCC3 | – | inactive: 4.63% |
| C(=N\n1cnnc1)/c1ccc2c(c1)OCCO2 | inconclusive [inhibitor, single point] | – |
| Nc1c2c3c(sc2nc(=O)n1N)CCCC3 | – | inactive: -5.5% |
| O=C(N/N=C/c1cc([N+](=O)[O-])cc([N+](=O)[O-])c1O)/C(=C\c1cccs1)NC(=O)c1ccccc1 | inconclusive [inhibitor, single point] | – |
| C/C(=N\Nc1ncc(Cl)cc1Cl)c1ccccn1 | – | inactive: -14.9% |

| Compound | Potency | activity, negative = inhibition |
| --- | --- | --- |
| O=C(COC(=O)Cn1nnc2ccccc21)Nc1ccccc1Br | – | inactive: 10.7% |
| O=C(O)c1ccc(Cn2nnc3sc4c(c3c2=O)CCCC4)cc1 | – | inactive: 3.83% |
| CCC(C)(NC(=O)c1ccc2c(c1)OCO2)C(=O)NC1CCCCC1 (configuration not stated) | – | inactive: -3.57% |
| CCOC(=O)CSc1nc(N2CCOCC2)c2c(c1C#N)CC(C)(C)N(C)C2 | active: 17.8 µM | – |
| O=C(Nc1ccccn1)C1COc2ccccc2O1 (configuration not stated) | – | inactive: -3.79% |
| Cc1cc(C)n(Cc2ccc(NC(=O)c3c([N+](=O)[O-])c(C)nn3C)cc2)n1 | inconclusive [inhibitor, single point] | – |
| COc1ccc(CNC(=O)C/C(C)=N/NC(=O)COc2ccc(Br)cc2)cc1 | inconclusive [inhibitor, partial curve] | – |
| COc1ccc(-c2csc3nc(-c4cccnc4)nc(Cl)c23)cc1OC | inconclusive [inhibitor, single point] | – |
| NC(=O)c1cc2nc(-c3ccco3)cc(C(F)(F)F)n2n1 | inconclusive [inhibitor, single point] | – |
| COc1cccc(Cn2c(=O)c(-c3ccc(Cl)cc3)nc3cnc(N(C)C)nc32)c1 | inconclusive [inhibitor, full curve] | – |
| COc1ccccc1NC1=C(NC(C)=O)C(=O)c2ccccc2C1=O | inconclusive [inhibitor, partial curve, poor fit] | – |
| COc1ccc(S(=O)(=O)n2nc(OC(=O)c3c(-c4ccccc4Cl)noc3C)cc2N)cc1 | inconclusive [inhibitor, single point] | – |
| Clc1ccccc1-c1cncnc1NCc1cccs1 | – | inactive: 23.4% |
| O=C(Cn1c2ccc(F)cc2c2nc3n(c(=O)c21)CCS3)Nc1ccccc1F | inconclusive [inhibitor, single point] | – |
| COc1ccc(-c2ccc(-c3noc(-c4ccccc4)n3)c(OC)n2)cc1 | inconclusive [inhibitor, partial curve] | – |
| CSc1nc(SC)c2c3c(oc2n1)COC(C)(C)C3 | inconclusive [inhibitor, single point] | – |
| O=c1onc(-c2cccs2)n1Cc1ccccc1 | inconclusive [inhibitor, single point] | – |
| CCc1ccc(OCC(=O)NC(=S)Nc2ccc(C(=O)O)cc2)cc1 | inconclusive [inhibitor, single point] | – |
| CCN(Cc1ccccc1)C(=O)CSc1ccccc1C(=O)O | inconclusive [inhibitor, single point] | – |
| c1cc2c3c(cccc3c1)C(N1CCCCCC1)=N2 | inconclusive [inhibitor, single point] | – |
| Cc1ccc(C)c(OCCCN2CCCC2)c1 | inconclusive [inhibitor, single point] | – |
| O=S(=O)(Nc1nccs1)c1ccc(NCc2cc(Br)cc(Br)c2O)cc1 | inconclusive [inhibitor, single point] | – |
| O=C(CSc1ccc2ccccc2n1)NCc1ccc2c(c1)OCO2 | active: 17.8 µM | – |
| CC1CCC2C(=O)N3C(CCC(C)[C@H]3c3ccccc3Br)C(=O)N2C1c1ccccc1Br (some centres not stated) | – | inactive: -3.73% [at 13.5 µM] |

| Compound | Potency | activity, negative = inhibition |
| --- | --- | --- |
| Cc1ccc(NC2CC(=O)N(c3ccc(N4CCCCC4)cc3)C2=O)cc1 (configuration not stated) | inconclusive [inhibitor, single point] | – |
| CN(C)CCn1c(C(=O)O)cc2ccccc21 | inconclusive [inhibitor, single point] | – |
| COc1cc(OC)cc(C2=NC3(CCC(C)CC3)NC2=S)c1 (configuration not stated) | – | inactive: -5.86% |
| CCC(=O)Nc1ccc(-c2nnc(SCc3ccc(C(=O)Nc4nccs4)cc3)n2CC)cc1 | inconclusive [inhibitor, single point] | – |
| N#CC12CCCCC1CC1CCCCC1(C#N)N2CCO (configuration not stated) | – | inactive: 11.8% |
| CNCCOc1nc(N2CCOCC2)nc(C)c1[N+](=O)[O-] | – | inactive: 12.5% |
| O=C(NCc1ccccn1)c1cc(-c2ccccc2Cl)on1 | inconclusive [inhibitor, partial curve] | – |
| CCOC(=O)N1CCC(NC(=O)c2cc3c(-c4cccc(OC)c4)nn(C)c3s2)CC1 | inconclusive [inhibitor, partial curve] | – |
| CSc1nc2ccc(NC(=O)c3cc4ccccc4o3)cc2s1 | inconclusive [inhibitor, single point] | – |
| CCC(CC)c1nnc(NC(=O)c2c(C)nn(Cc3ccccc3Cl)c2C)s1 | inconclusive [inhibitor, full curve, poor fit] | – |
| Cc1ccc(Cn2c(SCCN3CCCCC3)nc3c2c(=O)[nH]c(=O)n3C)cc1 | inconclusive [inhibitor, partial curve] | – |
| Cc1cccc2cc3c(N)c(C(=O)Nc4ccc(N5CCOCC5)cc4)sc3nc12 | inconclusive [inhibitor, full curve] | – |
| CC(C)Cn1c(-c2ccc(F)cc2)n[nH]c1=S | inconclusive [inhibitor, single point] | – |
| O=C1CN(C(=O)COc2ccccc2F)c2ccccc2N1 | active: 17.8 µM | – |
| COc1ccc(-c2cc(-c3ccc(N)cc3)nc(N)c2C#N)cc1OC | inconclusive [inhibitor, partial curve] | – |
| C=CCNC(=S)N/N=C(\C)c1cc(OC)c(OC)c(OC)c1 | – | inactive: 10.3% |
| COc1cc(C(=O)NCC(=O)OCC(=O)N2CCc3ccccc32)cc(OC)c1OC | – | inactive: -3.23% |
| CCN(CC)c1ccc(/C=C2\CCC(/C=C(\C#N)C(=O)Nc3ccccc3F)=C2N2CCOCC2)cc1 | inconclusive [inhibitor, partial curve] | – |
| COC(=O)c1ccc(NC(=O)CSc2nnc(COc3ccc4c(c3)CCCC4)o2)cc1 | inconclusive [inhibitor, partial curve] | – |
| Cc1ccc(NC(=O)c2cnccn2)cc1 | – | inactive: -1.64% |
| Cc1ccc(OCC(=O)N2c3ccccc3NC(=O)C2(C)C)c([N+](=O)[O-])n1 | inconclusive [inhibitor, single point] | – |
| CN(C)CCCN(C(=O)c1ccco1)c1nc2c(F)cccc2s1 | – | inactive: 4.67% |
| O=[N+]([O-])c1ccccc1S(=O)(=O)N1CCCCC1 | inconclusive [inhibitor, single point] | – |
| Cn1c2ccc(CC(=O)O)cc2c2cc(CC(=O)O)ccc21 | inconclusive [inhibitor, partial curve] | – |
